The campaign covered roughly 310,000 compounds. About 2,200 (0.71%) showed an effect of 50% or more. The effect is printed as a negative number. This is one part of the list.

Chain of human ether-à-go-go-related gene (hERG) potassium channel (Q12809 whole entry, looked up): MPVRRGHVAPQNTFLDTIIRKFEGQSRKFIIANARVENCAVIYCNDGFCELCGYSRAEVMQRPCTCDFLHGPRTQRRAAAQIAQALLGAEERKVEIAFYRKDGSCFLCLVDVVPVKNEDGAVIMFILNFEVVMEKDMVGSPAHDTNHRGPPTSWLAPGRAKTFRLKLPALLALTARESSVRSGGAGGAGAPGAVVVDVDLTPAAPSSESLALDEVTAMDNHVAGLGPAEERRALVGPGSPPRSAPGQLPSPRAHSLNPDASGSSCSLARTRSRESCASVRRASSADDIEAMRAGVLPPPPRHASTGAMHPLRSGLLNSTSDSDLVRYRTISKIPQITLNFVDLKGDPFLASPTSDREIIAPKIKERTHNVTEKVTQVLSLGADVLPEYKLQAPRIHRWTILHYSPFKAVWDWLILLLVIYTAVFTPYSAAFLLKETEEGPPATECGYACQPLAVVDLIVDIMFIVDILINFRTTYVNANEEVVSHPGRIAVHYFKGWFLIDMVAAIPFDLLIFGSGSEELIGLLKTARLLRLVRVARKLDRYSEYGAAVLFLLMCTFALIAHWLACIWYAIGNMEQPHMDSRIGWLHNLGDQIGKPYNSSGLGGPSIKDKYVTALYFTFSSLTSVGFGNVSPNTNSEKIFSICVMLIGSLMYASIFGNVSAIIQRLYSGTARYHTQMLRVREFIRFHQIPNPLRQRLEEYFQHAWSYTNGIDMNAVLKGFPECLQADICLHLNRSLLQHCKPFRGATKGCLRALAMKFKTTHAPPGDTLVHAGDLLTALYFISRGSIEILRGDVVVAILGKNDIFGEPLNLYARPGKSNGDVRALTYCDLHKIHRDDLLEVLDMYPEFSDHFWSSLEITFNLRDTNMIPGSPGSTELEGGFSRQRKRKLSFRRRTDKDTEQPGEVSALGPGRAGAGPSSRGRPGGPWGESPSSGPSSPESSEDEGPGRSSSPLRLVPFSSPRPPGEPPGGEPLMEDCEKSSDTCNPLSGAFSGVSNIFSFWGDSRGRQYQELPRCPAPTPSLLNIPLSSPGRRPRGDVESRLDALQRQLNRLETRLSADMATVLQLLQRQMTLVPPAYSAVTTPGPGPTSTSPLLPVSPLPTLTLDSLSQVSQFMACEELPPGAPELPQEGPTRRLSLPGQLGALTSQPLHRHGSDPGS

The assay addresses human ether-à-go-go-related gene (hERG) potassium channel (human, UniProt Q12809). Briefly: primary screen, population patch clamp on CHO cells stably expressing hERG.
Regarding `Nc1c(C(=O)NCc2ccco2)sc2nc3c(cc12)C(=O)CCC3`, the “hERG current change (%, negative = inhibition) at 1uM” value is reported as -10.5%.
As for `COc1ccc(CC(=O)N(C)CC(=O)Nc2c(C)cccc2C)cc1S(=O)(=O)N1CCOCC1`, the “hERG current change (%, negative = inhibition) at 1uM” value worked out at 5.42%.
The value for `Cc1cc(C)n2cc(CSc3nnnn3-c3ccccc3)nc2n1` was -5.94%; that for `Cc1ccccc1NC(=O)c1ccccc1NC(=O)c1cccs1` was 13.9%; that for `COc1cccc(NC(=O)[C@@H](NC(=O)N2C[C@H]3C[C@@H](C2)c2cccc(=O)n2C3)C(C)C)c1` was 17.5%.
As to `O=C(NCc1ccco1)c1ccc(COCC(F)(F)F)cc1`, the “hERG current change (%, negative = inhibition) at 1uM” value is -5.24%.
Regarding `CCCc1cc(=O)[nH]c(SCC(=O)NC2CCCc3ccccc32)n1` (centres unmarked), the “hERG current change (%, negative = inhibition) at 1uM” value stood at 4.91%.
In the case of `O=C(COC(=O)C1CCN(c2ccc(C(F)(F)F)cn2)CC1)c1ccc(Cl)cc1`, the “hERG current change (%, negative = inhibition) at 1uM” value turned out to be 14.6%.
The figure for `COc1ccc(/C=C2\SC(=O)N(CCC(=O)N3CCCCC3)C2=O)cc1OC` is 9.83%; for `Cc1cc(C)n2nc(SCc3ccc(C#N)cc3)nc2n1` it is 6.64%.
Regarding `COc1ccccc1N1CCN(C(c2cccs2)c2nnnn2C2CCCC2)CC1` (centres unmarked), the “hERG current change (%, negative = inhibition) at 1uM” value stood at 11.6%.
For the molecule `CC(=O)c1sc(N/N=C\c2ccccc2O)nc1C`, the “hERG current change (%, negative = inhibition) at 1uM” value is recorded as 11.5%.
Consider `O=C(NC(Cc1c[nH]c2ccccc12)C(=O)NCc1ccc(F)cc1)OCc1ccccc1` (centres unmarked), for which the “hERG current change (%, negative = inhibition) at 1uM” value was 5.45%.
In the case of `O=C(CSc1cn(Cc2cccc(F)c2)c2ccccc12)NCc1ccc(F)cc1`, the “hERG current change (%, negative = inhibition) at 1uM” value came out at 15.4%.
The value for `CC(C)(O)CNC(=O)C(Cc1ccccc1)N1C(=O)c2ccccc2C1=O` (centres unmarked) was 22.1%.
The value for `Cc1cc(C(=O)NC2CCCc3c2cnn3-c2ccc(C(C)(C)C)cc2)n[nH]1` (centres unmarked) was 7.82%.
`Cc1ccc(NC(=S)N(CCN2CCOCC2)Cc2ccccc2F)cc1`: the “hERG current change (%, negative = inhibition) at 1uM” value worked out at 5.79%.
The figure for `O=C(NCc1ccco1)C1(S(=O)(=O)c2ccc(Cl)cc2)CC1` is 11.5%; for `Cc1csc(NC(=O)CCn2c(=O)oc3ccccc32)n1` it is 2.96%.
Take `COC(=O)CSc1cc([N+](=O)[O-])ccc1NC(=O)OC`: the “hERG current change (%, negative = inhibition) at 1uM” value is given as 22.1%.
As to `CC(=O)c1ccc(N2C(=NC(=O)CCC3CCCC3)SC3CS(=O)(=O)CC32)cc1` (centres unmarked), the “hERG current change (%, negative = inhibition) at 1uM” value is reported as 13.6%.
As for `CCCNC(=O)N1[C@H]2CC[C@@H]1C(C(=O)OC)=C(c1ccc(-c3ccccc3)c(F)c1)C2`, the “hERG current change (%, negative = inhibition) at 1uM” value is 13.8%.
In the case of `Cc1cc([N+](=O)[O-])nn1CC(=O)N/N=C/c1ccccc1F`, the “hERG current change (%, negative = inhibition) at 1uM” value amounted to 8.66%.
The value for `COC(=O)C(C)Oc1ccc(Cl)c(CN2OCC(C)(C)C2=O)c1` (centres unmarked) was 7.79%; that for `CCCCC(=O)Nc1ncc(Br)s1` was 0.78%; that for `O=C(CN1CCSCC1)N/N=C/c1cccc(Cl)c1` was 6.31%.
Turning to `CC(C)C(NC(=O)CSCc1ccc([N+](=O)[O-])cc1)C(C)C`, the “hERG current change (%, negative = inhibition) at 1uM” value is given as -0.194%.
The figure for `O=C(CCCCn1c(=O)c2ccccc2n(Cc2ccc(F)cc2Cl)c1=O)NCc1ccco1` is 11.5%.
The figure for `CCN1CC(O)=C(c2nc3ccccc3s2)C1=N` is 1.2%.
Regarding `O=[N+]([O-])c1cc(S(=O)(=O)N2CCCC2)ccc1NCCCN1CCOCC1`, the “hERG current change (%, negative = inhibition) at 1uM” value was -0.789%.
For the molecule `O=C(CCSCc1ccccc1Cl)N1CCN(c2cccc(Cl)c2)CC1`, the “hERG current change (%, negative = inhibition) at 1uM” value worked out at 7.76%.
Regarding `CCCOC1CCCN(C(=O)c2cc(COc3ccc(-n4cncn4)cc3)on2)C1` (centres unmarked), the “hERG current change (%, negative = inhibition) at 1uM” value is given as -5.67%.
In the case of `CC1CC(C)CN(S(=O)(=O)c2cc3c4c(c2)CCC(=O)N4CCC3)C1` (centres unmarked), the “hERG current change (%, negative = inhibition) at 1uM” value was found to be 13%.
On to `Cc1cc2occ(CC(=O)NCc3cccs3)c2cc1C(C)C`, for which the “hERG current change (%, negative = inhibition) at 1uM” value is reported as -10.6%.
For `Cc1ccc2nc(C)c(C(=O)NN=C3CCCCCC3)n2c1`, the “hERG current change (%, negative = inhibition) at 1uM” value is listed as 15.2%.
The value for `COc1ccc(/C=C2/SC(=O)N(CCNC(=O)C3COc4ccccc4O3)C2=O)cc1` (centres unmarked) was 7.95%; that for `CS(=O)(=O)Nc1ccc(C2=NN(C(=O)c3ccco3)C(c3ccccc3)C2)cc1` (centres unmarked) was -23.3%.
`CCOC(=O)c1c(C)[nH]c(C(=O)COC(=O)CN2C(=O)C3CCCCC3C2=O)c1C` (centres unmarked): the “hERG current change (%, negative = inhibition) at 1uM” value is 0.234%.
The figure for `O=S1(=O)CCOC[C@H](c2ccccc2)N1Cc1cccc(F)c1` is 8.89%.
Turning to `C=CCN(CC=C)CCOc1ccccc1[N+](=O)[O-].O=C(O)C(=O)O`, the “hERG current change (%, negative = inhibition) at 1uM” value came to 1.55%.
The value for `CCCNC(=O)N1CCC(C(=O)c2ccc(Cl)cc2)CC1` was 5.87%.
Consider `Cc1ccc(-c2n[nH]c(Cc3ccccc3)n2)cc1`, for which the “hERG current change (%, negative = inhibition) at 1uM” value is recorded as 6.85%.
`CCOc1ccc(CN2CCN(Cc3cccn3-c3nccs3)CC2CCO)cc1` (centres unmarked): the “hERG current change (%, negative = inhibition) at 1uM” value is recorded as -84%.
The figure for `COC(=O)c1sccc1NC(=O)Nc1cc(C)ccc1C` is 8.58%; for `Cc1cccc(C(=O)NC(C)C2CC3CCC2C3)c1` (centres unmarked) it is 7.22%; for `CC(=O)N1CCc2cc(Br)cc(S(=O)(=O)NCc3ccc(Cl)cc3)c21` it is -11.6%.
In the case of `Cc1ccc(-c2noc(CN3CCN(Cc4ccccc4)CC3)n2)cc1`, the “hERG current change (%, negative = inhibition) at 1uM” value amounted to 3.56%.
For the molecule `COc1ccc(/C=N/NC(=S)Nc2cc(S(=O)(=O)N3CCOCC3)ccc2N2CCOCC2)cc1O`, the “hERG current change (%, negative = inhibition) at 1uM” value was 2.39%.
For `Cc1cccc(-n2c(-c3csc(C(C)C)c3)n[nH]c2=S)c1`, the “hERG current change (%, negative = inhibition) at 1uM” value was -3.85%.
Consider `NNC(=O)c1oc2ccccc2c1-n1cccc1`, for which the “hERG current change (%, negative = inhibition) at 1uM” value is reported as 6.33%.
The figure for `CCN(CC)C(=O)CSc1ncnc2sc(C)c(C)c12` is -3.82%; for `CC1CC(C)CN(C(=O)COC(=O)CCCN2C(=O)c3cccc4cccc(c34)C2=O)C1` (centres unmarked) it is 9.38%; for `COCCn1c(=O)c2c(nc3n2CCCN3CCc2ccc(OC)c(OC)c2)n(C)c1=O` it is 6.66%.
As to `Cc1cccc(N/N=C2/COC(C)(C)CC2=O)c1`, the “hERG current change (%, negative = inhibition) at 1uM” value is 8.8%.
Take `C=CCNC(=O)c1ccccc1NC(=O)C1CCN(S(=O)(=O)c2ccc(SC)cc2)CC1`: the “hERG current change (%, negative = inhibition) at 1uM” value is given as -56.8%.
For `N#Cc1ccccc1NC(=O)COC(=O)C1CCN(C(=O)c2ccc(Cl)cc2)CC1`, the “hERG current change (%, negative = inhibition) at 1uM” value is -24.8%.
For `COc1ccccc1/C=C1\SC(=S)N(Nc2nc(C)cc(C)n2)C1=O`, the “hERG current change (%, negative = inhibition) at 1uM” value is -2.05%.
The value for `Cn1c(N)c(C(=O)COC(=O)/C=C/c2ccc(F)cc2)c(=O)n(C)c1=O` was -9.89%.
On to `COc1cc([C@@H]2c3cc4c(cc3[C@@H](O[C@@H]3O[C@@H]5CO[C@@H](C)O[C@H]5[C@H](O)[C@H]3O)[C@H]3COC(=O)[C@H]23)OCO4)cc(OC)c1O`, for which the “hERG current change (%, negative = inhibition) at 1uM” value is given as 15.6%.
`COc1ccc(N(CC(=O)NCc2ccccc2OC)S(=O)(=O)c2ccccc2[N+](=O)[O-])c(OC)c1`: the “hERG current change (%, negative = inhibition) at 1uM” value was 11.8%.
Turning to `O=[N+]([O-])c1cc(S(=O)(=O)Nc2cccc(Cl)c2)ccc1N=Nc1c(O)[nH]c2ccccc12`, the “hERG current change (%, negative = inhibition) at 1uM” value came out at 1.82%.
Take `CCOc1ccc(C(=O)COC(=O)c2cc([N+](=O)[O-])ccc2N2CCOCC2)cc1`: the “hERG current change (%, negative = inhibition) at 1uM” value was found to be 6.02%.
Turning to `COc1ccccc1N1CCN(C(=O)c2cc(-c3ccccc3O)on2)CC1`, the “hERG current change (%, negative = inhibition) at 1uM” value amounted to 8.86%.
Turning to `O=C(c1ccccc1F)N1CCN(S(=O)(=O)c2ccc(Br)cc2)CC1`, the “hERG current change (%, negative = inhibition) at 1uM” value is -5.95%.
For `Cn1c(=O)c2cc(S(=O)(=O)N3CCOCC3)ccc2n(C)c1=O`, the “hERG current change (%, negative = inhibition) at 1uM” value is given as -10.2%.
With `COc1ccc(-c2noc(-c3cccc(Cl)c3)n2)cc1OC`, the “hERG current change (%, negative = inhibition) at 1uM” value was determined as 12.7%.
Take `CCCCOC(=O)c1ccc(NC(=S)NC(=O)c2c(Cl)cnn2CC)cc1`: the “hERG current change (%, negative = inhibition) at 1uM” value stood at 4.3%.
Regarding `Cn1c(=O)c2c(nc(N3CCCCC3)n2CC(O)COc2ccccc2)n(C)c1=O` (centres unmarked), the “hERG current change (%, negative = inhibition) at 1uM” value is 5.96%.
For the molecule `O=C(O)C1CC=CCC1C(=O)NCCCCc1ccccc1` (centres unmarked), the “hERG current change (%, negative = inhibition) at 1uM” value worked out at 13.3%.
As to `COc1cc(C2C(C(=O)c3cccs3)=C(O)C(=O)N2CCN2CCOCC2)ccc1OCCC(C)C` (centres unmarked), the “hERG current change (%, negative = inhibition) at 1uM” value amounted to 16.7%.
Regarding `COc1cccc(C(=O)N(CN2CCCC2=O)c2cc(C)on2)c1`, the “hERG current change (%, negative = inhibition) at 1uM” value stood at 10%.
For `Cc1ccc2c(c1)cc(CN(Cc1ccco1)C(=O)N1CCOCC1)c1nnnn12`, the “hERG current change (%, negative = inhibition) at 1uM” value is -5.64%.
The figure for `CCCCn1c(O)c(C(CC)=Nc2ccc(C(=O)O)cc2)c(=O)[nH]c1=O` is 15.7%; for `Cc1nc(N2CCN(S(=O)(=O)c3ccccc3)CC2)c2cc(-c3ccccc3)sc2n1` it is 2.54%.
`O=C(NCCN1CCN(Cc2ccccc2Cl)CC1)Nc1ccccc1`: the “hERG current change (%, negative = inhibition) at 1uM” value was -26.3%.
In the case of `O=C(N/N=C/c1sc(N2CCCCC2)nc1-c1cccs1)C1CC1`, the “hERG current change (%, negative = inhibition) at 1uM” value is on record as 6.36%.
Consider `O=S(=O)(c1ccccc1)N1CCN(c2ncccn2)CC1`, for which the “hERG current change (%, negative = inhibition) at 1uM” value was -0.261%.
Take `O=C(NCc1ccccc1)N1CCC(CO)(CCc2ccccc2)CC1`: the “hERG current change (%, negative = inhibition) at 1uM” value came out at 4.29%.
In the case of `COc1ccccc1NS(=O)(=O)c1cccc(C(=O)NN=C2CCCC2)c1`, the “hERG current change (%, negative = inhibition) at 1uM” value is listed as 4.64%.
Take `COc1ccc(N=c2scc(C)n2CCCN2CCCC2=O)cc1`: the “hERG current change (%, negative = inhibition) at 1uM” value turned out to be 9.22%.
Consider `CC(C)(C)NC(=O)COC(=O)c1ccccc1C(=O)c1ccccc1`, for which the “hERG current change (%, negative = inhibition) at 1uM” value came out at 16.8%.
In the case of `Cn1cc(CN2CCCC(CO)(Cc3ccccc3)C2)cn1` (centres unmarked), the “hERG current change (%, negative = inhibition) at 1uM” value is given as 3.23%.
`Cc1cc(NC(=O)NC(=O)c2ccc(F)cc2F)n[nH]1`: the “hERG current change (%, negative = inhibition) at 1uM” value stood at 13.8%.
`O=C(Cn1ncnn1)OCc1ccccc1Cl`: the “hERG current change (%, negative = inhibition) at 1uM” value worked out at 11.3%.
The figure for `CCOc1ccc(S(=O)(=O)N2CCC(C(=O)N3CCCC3)CC2)cc1C` is 14%; for `O=C(COC(=O)c1cccc(C(F)(F)F)c1)NCc1ccccc1` it is 7.71%.

Values taken from PMC4336329 (PLoS ONE, 2015).
